# PubChem BioAssay AID651820 (National Center for Advancing Translational Sciences (NCATS), 2012)
# Out of some 340,000 compounds screened, about 12,000 (3.5%) were called active. The shares of active, inactive and inconclusive entries below differ from those in the screen. The call rests on the fitted dose curve; in most records, active means well fitted inhibition curve with a large enough effect; inconclusive means small, poorly fitted or top-dose-only effect, or another doubt; inactive means no such curve, though single readings can be large or run the other way. Potencies of inconclusive entries are left out as doubtful fits.
# Assay: qHTS Assay for Inhibitors of Hepatitis C Virus (HCV)
# Details: Huh7.5.1 HCVcc-Cre (HCVcc is cell-culture hepatitis C virus) infection, luciferase reporter, 44 h; series mostly up to 41.8 µM
# In short: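 Cells (1,000/well) were plated 4 h before compound, then infected with HCVcc-Cre virus (~0.5 moi). After 44 h further culture, infection was read as luciferase luminescence following a 15 min substrate incubation at room temperature.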
# Potency means the concentration at half of the fitted maximal effect; tags describe the fitted curve by direction and shape.
row,Structure (SMILES),Potency
1,O=C(NC(=O)c1ccc(Cl)cc1)Nc1cc(N2CCCCC2)ncn1,"inconclusive [inhibitor, single point]"
2,O=C(c1[nH]ncc1-c1cccc(Br)c1)C1CO1 (stereo not given),"inconclusive [inhibitor, partial curve]"
3,Cc1c(Cl)cccc1NC(=S)N1CCN(C(=O)C2CCCO2)CC1 (stereo not given),inactive
4,CCCn1c2ccccc2c2cnn(CC(=O)NCCCN3CCCC(C)C3)c(=O)c21 (stereo not given),"inconclusive [inhibitor, single point]"
5,COc1cc(OC)cc(C(=O)NC2CCSC2=O)c1 (stereo not given),"inconclusive [inhibitor, single point]"
6,O=C(NC1CC1)C1=C[C@@H](c2ccccc2)C[C@@H](OCCCCO)O1,"inconclusive [inhibitor, single point]"
7,O=C(CCN1C(=O)c2ccccc2S1(=O)=O)Nc1cc(Cl)ccc1Cl,"inconclusive [inhibitor, single point]"
8,CCOC(=O)c1nnn(-c2nonc2-n2cccc2)c1C,inactive
9,COc1ccc(-n2nc(C(=O)NCCCN3CCCC3=O)c3c4ccccc4n(C)c3c2=O)cc1Cl,"inconclusive [inhibitor, single point]"
10,COc1ccc(N=c2sc3ccccc3n2C)cc1,inactive
11,Cc1ccc(C2(CCNC(C)c3cccs3)CCOC(C(C)C)C2)cc1 (stereo not given),"inconclusive [inhibitor, partial curve]"
12,COC(=O)c1c(NC(=O)CN2CCN(C(=O)c3ccco3)CC2)c2c(C)cccc2n1C,inactive
13,Cc1cc(C)c(CN2CCN(CCCn3ccc(NC(=O)OCc4ccccc4)nc3=O)CC2)c(C)c1,active: 7.94 µM
14,CCOc1ccccc1NC(=O)COc1cccnc1[N+](=O)[O-],"inconclusive [inhibitor, single point]"
15,COc1ccccc1CNC(=O)c1ccc2nc3[nH]c4ccccc4c3nc2c1,"inconclusive [inhibitor, partial curve]"
16,Cc1ccccc1-c1nnn(CC(=O)N2CCN(S(=O)(=O)c3ccc(Cl)cc3)CC2)n1,"inconclusive [inhibitor, single point]"
17,COCCN(CC(=O)Nc1ccccc1C(F)(F)F)C(=O)/C=C/c1cc(Cl)c2c(c1)OCO2,"inconclusive [inhibitor, partial curve]"
18,O=C(COC(=O)c1ccc([N+](=O)[O-])o1)NCc1ccccc1,inactive
19,Cc1cc2ccccc2n2c(SCC(=O)Nc3ccc(S(=O)(=O)N4CCCCC4)cc3)nnc12,"inconclusive [inhibitor, single point]"
20,COc1ccc(CC(=O)n2[nH]c(=O)ccc2=O)cc1OC,inactive
21,COc1ccc(-c2cc(=O)oc3c(C)c(OC(C)C(=O)NCc4ccccn4)ccc23)cc1 (stereo not given),"inconclusive [inhibitor, full curve]"
22,COc1ccc(CN2CCOCCOCCN(Cc3ccc(OC)cc3)CCOCCOCC2)cc1,"inconclusive [inhibitor, single point]"
23,COC(=O)c1ccc(NC(=O)CCS(=O)(=O)c2ccc3c(c2)NC(=O)C(C)S3)cc1 (stereo not given),inactive

row,Structure (SMILES),Potency
1,Cc1ccccc1Nc1nc(N)nc(COC(=O)c2ccccc2)n1,inactive
2,O=C(c1cc(COc2ccc(F)cc2Cl)on1)N1CCC(c2ccncc2)CC1,active: 12.6 µM
3,Cc1ccc(-c2nc3ccccc3s2)cc1S(=O)(=O)N1CCCC1,"inconclusive [inhibitor, single point]"
4,CC(C)(C)c1ccccc1NC(=O)Cn1cnc2cc([N+](=O)[O-])ccc2c1=O,"inconclusive [inhibitor, single point]"
5,CCOC(=O)c1ccc(-c2c(C)cc3oc(=O)cc(-c4ccccc4)c3c2C)cc1,"inconclusive [inhibitor, partial curve]"
6,COc1ccc2sc(N(CCCN(C)C)C(=O)c3ccc(C(=O)c4ccccc4)cc3)nc2c1,"inconclusive [inhibitor, full curve]"
7,COc1cc(OC)c2c(-c3cccc(-c4cccc(N)c4)c3)cc(=O)oc2c1,"inconclusive [inhibitor, partial curve]"
8,COc1ccc(NC(=O)C(=O)NCC(c2ccco2)N2CCc3ccccc32)cc1 (stereo not given),"inconclusive [inhibitor, partial curve]"
9,O=C(NCc1cccc2ccccc12)c1cccs1,inactive
10,CCCn1c(SCC(=O)N(C)CC(=O)Nc2ccc(Cl)cc2)n[nH]c1=O,inactive
11,CSc1nc(N)nc2c1ncn2CC(=O)N1CCN(c2ccccn2)CC1,inactive
12,CC(C)(C)c1ccc(C(=O)N2CCN(CCNC(=O)C(=O)NCc3ccc(Cl)cc3)CC2)cc1,active: 11.2 µM
13,CCOC(=O)c1c(-c2ccc(C)cc2)csc1NC(=O)CCSc1nnc2ccccn12,"inconclusive [inhibitor, partial curve]"
14,Cc1ccc2c(c1)c1ncnc(N3CCN(c4ccccc4)CC3)c1n2C,inactive
15,COc1ccc(NC(=O)Nc2ccc(F)cc2F)cc1,inactive
16,Cc1nc2ccc(NS(=O)(=O)c3c(F)cccc3F)cc2s1,"inconclusive [inhibitor, single point]"
17,CC(C)NC(=S)N/N=C/c1cccnc1,inactive
18,COc1ccc(N2CCN(C3CCCN(C(=O)CSC)C3)CC2)cc1 (stereo not given),inactive
19,CCOc1ccc(NC(=S)Nc2cc(OC)c(Cl)cc2OC)cc1,"inconclusive [inhibitor, full curve, poor fit]"
20,COc1ccccc1NC(=O)c1cccc(S(=O)(=O)N2CCN(c3ccccc3)CC2)c1,"inconclusive [inhibitor, partial curve]"
21,CCOc1ccc(NC(=O)Nc2cc(C)ccc2F)cc1,"inconclusive [inhibitor, full curve, poor fit]"
22,CC12CCC(=O)C=C1CCC1C2CCC2(C)C1CC1C3C(=O)N(Cc4ccccc4)C(=O)C3CC(=O)C12 (stereo not given),"inconclusive [inhibitor, partial curve]"
